Source: paper PMC4770211
Like-named read-outs stand apart in the source and are kept apart here. These are yes or no findings as the source states them, for the method shown. For part of these data: In cells and extracts the contact can be indirect. Some entries that bind do so weakly or less than the wild type. For part of these data: Tags and fused reporters may be left off the sequences shown. One block for each molecule: values may come before it.

Protein sequences, listed by entry. Tags and fused reporters are not part of them.
UniProt Q9SR02: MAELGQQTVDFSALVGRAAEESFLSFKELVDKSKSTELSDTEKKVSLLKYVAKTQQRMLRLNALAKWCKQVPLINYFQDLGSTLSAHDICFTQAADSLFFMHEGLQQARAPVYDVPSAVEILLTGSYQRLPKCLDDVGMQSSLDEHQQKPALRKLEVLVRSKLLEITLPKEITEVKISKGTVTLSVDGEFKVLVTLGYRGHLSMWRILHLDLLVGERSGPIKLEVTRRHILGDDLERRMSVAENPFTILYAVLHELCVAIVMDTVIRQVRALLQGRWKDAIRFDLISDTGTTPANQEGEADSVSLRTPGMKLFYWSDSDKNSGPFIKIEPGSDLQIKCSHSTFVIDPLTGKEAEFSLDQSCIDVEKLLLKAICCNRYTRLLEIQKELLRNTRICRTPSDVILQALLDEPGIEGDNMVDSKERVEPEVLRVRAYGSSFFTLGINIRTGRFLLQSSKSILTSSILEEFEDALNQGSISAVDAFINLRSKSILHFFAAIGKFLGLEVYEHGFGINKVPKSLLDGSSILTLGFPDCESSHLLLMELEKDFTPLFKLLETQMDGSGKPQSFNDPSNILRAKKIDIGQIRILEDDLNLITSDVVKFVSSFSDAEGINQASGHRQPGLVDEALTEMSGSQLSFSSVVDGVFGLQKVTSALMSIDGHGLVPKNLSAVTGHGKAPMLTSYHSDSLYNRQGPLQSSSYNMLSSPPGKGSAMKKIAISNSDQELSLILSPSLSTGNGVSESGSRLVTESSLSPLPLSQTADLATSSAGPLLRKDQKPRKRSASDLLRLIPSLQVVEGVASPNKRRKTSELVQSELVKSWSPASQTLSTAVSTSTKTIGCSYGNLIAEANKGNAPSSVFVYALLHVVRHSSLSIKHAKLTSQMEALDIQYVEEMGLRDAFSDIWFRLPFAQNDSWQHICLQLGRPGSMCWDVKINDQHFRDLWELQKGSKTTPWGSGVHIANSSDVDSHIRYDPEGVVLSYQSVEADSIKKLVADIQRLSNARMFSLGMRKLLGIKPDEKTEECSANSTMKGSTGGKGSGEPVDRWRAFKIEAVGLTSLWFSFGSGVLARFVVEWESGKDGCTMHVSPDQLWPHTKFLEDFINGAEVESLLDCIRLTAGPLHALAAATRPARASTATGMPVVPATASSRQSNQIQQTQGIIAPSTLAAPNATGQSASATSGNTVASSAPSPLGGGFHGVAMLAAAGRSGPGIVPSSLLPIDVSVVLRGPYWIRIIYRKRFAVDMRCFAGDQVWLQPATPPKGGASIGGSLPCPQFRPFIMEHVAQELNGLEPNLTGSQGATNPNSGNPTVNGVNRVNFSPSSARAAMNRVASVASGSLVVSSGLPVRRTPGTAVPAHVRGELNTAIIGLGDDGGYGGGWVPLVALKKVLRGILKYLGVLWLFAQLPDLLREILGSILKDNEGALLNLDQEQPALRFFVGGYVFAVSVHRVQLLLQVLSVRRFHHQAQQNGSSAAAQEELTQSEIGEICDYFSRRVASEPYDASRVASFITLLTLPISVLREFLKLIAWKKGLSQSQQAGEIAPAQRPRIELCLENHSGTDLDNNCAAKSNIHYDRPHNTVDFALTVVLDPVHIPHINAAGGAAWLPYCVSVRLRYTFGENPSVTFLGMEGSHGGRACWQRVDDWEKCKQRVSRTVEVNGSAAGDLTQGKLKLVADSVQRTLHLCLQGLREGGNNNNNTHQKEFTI

Experiments:
[1] = target: T1, AtMed4, full length, yeast two-hybrid bait (Arabidopsis) (UniProt Q9LZ00); test: two-hybrid; Matchmaker Gold system; BD (pGBKT7) and AD (pGADT7) constructs co-transformed in yeast strain AH109, selected on SD-Trp-/Leu-, spotted at OD600 ~0.2 on SD-Trp-/Leu-/His-/Ade-; full-length subunits and deletion fragments
T1 sequence: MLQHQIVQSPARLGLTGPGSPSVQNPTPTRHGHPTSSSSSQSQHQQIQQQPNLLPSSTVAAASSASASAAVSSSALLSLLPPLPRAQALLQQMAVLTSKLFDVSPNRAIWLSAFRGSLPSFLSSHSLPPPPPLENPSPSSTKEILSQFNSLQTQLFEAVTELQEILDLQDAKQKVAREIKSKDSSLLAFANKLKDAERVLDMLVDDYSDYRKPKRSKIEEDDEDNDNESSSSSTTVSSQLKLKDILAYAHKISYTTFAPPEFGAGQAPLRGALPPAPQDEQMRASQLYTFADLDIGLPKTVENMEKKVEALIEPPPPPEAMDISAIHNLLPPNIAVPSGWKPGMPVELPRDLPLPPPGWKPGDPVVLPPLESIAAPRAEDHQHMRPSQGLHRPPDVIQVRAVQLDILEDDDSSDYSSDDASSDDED

[2] = target: T1, AtMed4, full length, yeast two-hybrid bait (Arabidopsis); test: as above; remark: listed apart in the source
[3] = target: T2, AtMed4 in the BiFC vector pSAT4-DEST-N (1–174) EYFP-C1 (Arabidopsis) (UniProt Q9LZ00); test: split reporter; BiFC with the EYFP halves 1-174 and 175-end, plasmids bombarded on onion epidermal cells, confocal microscopy after 24 h; signal in the nucleus
T2 sequence: T1 sequence

[4] = target: AtMed19a, full length, yeast two-hybrid fusion (Arabidopsis) (UniProt Q9FMP0); test: two-hybrid; Matchmaker Gold system; BD (pGBKT7) and AD (pGADT7) constructs co-transformed in yeast strain AH109, selected on SD-Trp-/Leu-, spotted at OD600 ~0.2 on SD-Trp-/Leu-/His-/Ade-; full-length subunits and deletion fragments
[5] = target: T3, AtMed4 (306–426), C-terminal IDR, yeast two-hybrid deletion construct (Arabidopsis) (UniProt Q9LZ00); test: as above
T3 sequence: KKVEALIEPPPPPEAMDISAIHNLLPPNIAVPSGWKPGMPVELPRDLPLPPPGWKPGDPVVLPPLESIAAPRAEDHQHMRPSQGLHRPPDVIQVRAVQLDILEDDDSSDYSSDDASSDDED

- binding [1]: no binding
Molecule: AtMed14, yeast two-hybrid fusion (from UniProt Q9SR02 1-1703)

- binding [2]: binds
B1: AtMed9, full length, yeast two-hybrid prey (protein, UniProt Q8RWA2 1-244)
chain: MDQFSGGGGNWSMIPNVQAQGNFGTPTNHDQQLFLQQQQLQQQQQQQQQQQFHLQQQQQTQQQQQQFQPQQQQEMQQYQQFQQQQHFIQQQQFQQQQRLLQSPPLQPQSLQSPPPQQTMVHTPQSMMHTPQQQQQLVQTPVQTPQQHQSLASHFHLYPMVEKLADVIENGTRDQNSDALVNELNSHFDKCQQLLNSISGSLGSKTMTVDGQKRNVEESEQLLQQRRDLIVEYRKSIEEIVTMEH

- binding [3]: binds
B2: AtMed9 in the BiFC vector pSAT5-DEST-C (175-END) EYFP-C1 (protein, UniProt Q8RWA2 1-244)
chain: B1 chain

- binding [2]: no binding
B3: AtMed3, yeast two-hybrid fusion (protein, UniProt Q8RWM3 1-402)
chain: MQTLHQSQLLQNPAEAANNQSESDAPPKQVAQAMERLNQAARVIADIRLGADRILEAMFVASQPRHTDMPLQLFLREDASMRQHLQDLRLIGKKLEESGVLTESLRSRSNSWGLHMPLVCPDGAVVAYAWKRQLAGQAGASAVDRTRLALKAFTDQKRRFFPHIDDGLKMEPSSKKHRASHLLLENGREEPVDYKTLPDIQSRLEKLVPSVKVSTYGRLNWLKRANSLPGSGSDDPTEASKPIFQSSSKLRSGLQTEVVDKIAVIELSFPSLFRAIVSLSPAGSVDPDAVAFFSPDEGGSYLHARGFSVYHVYKHITEHAATALQYFLGFGTGTALYSLLLWICSFESVFSKPCTKCGRLLAMDKKSALILPPLHRAYQELPLALNLDVCEAYHSSCSQDDT

- binding [4]: binds
B4: AtMed19a, full length, yeast two-hybrid fusion (protein, UniProt Q9FMP0 1-221)
chain: MEPERLKFGGPRELCGAADLISQFKLVQHHEFFCKKSLPVSLSDSHYLHNVVGDTEIRKGEGMQLDQLIESISQSRETNIRIQPFDIDELQESFQLNDMTPVELPPAEKGAPTIPSKSKSESKDRDRKHKKHKDRDKDKDREHKKHKHKHKDRSKDKDKDKDRDRKKDKNGHHDSGDHSKKHHDKKRKHDGDEDLNDVQRHKKNKHKSSKLDEVGAIRVAG

- binding [5]: binds
B5: AtMed9 (1–130), N-terminal IDR, yeast two-hybrid deletion construct (domain or fragment, UniProt Q8RWA2 1-130)
chain: MDQFSGGGGNWSMIPNVQAQGNFGTPTNHDQQLFLQQQQLQQQQQQQQQQQFHLQQQQQTQQQQQQFQPQQQQEMQQYQQFQQQQHFIQQQQFQQQQRLLQSPPLQPQSLQSPPPQQTMVHTPQSMMHTP
